No constants are given. Whether binding was seen depends on the method and setting. Binding seen in cells or lysates may run through a third protein. Some binding calls cover weakened binding; strength is not graded here. Where a sequence is shown, tags or fusion partners need not be part of it.
B1: mCherry-HA-hnRNP L (1–589) (protein, UniProt P14866 1-589)
chain: MSRRLLPRAEKRRRRLEQRQQPDEQRRRSGAMVKMAAAGGGGGGGRYYGGGSEGGRAPKRLKTDNAGDQHGGGGGGGGGAGAAGGGGGGENYDDPHKTPASPVVHIRGLIDGVVEADLVEALQEFGPISYVVVMPKKRQALVEFEDVLGACNAVNYAADNQIYIAGHPAFVNYSTSQKISRPGDSDDSRSVNSVLLFTILNPIYSITTDVLYTICNPCGPVQRIVIFRKNGVQAMVEFDSVQSAQRAKASLNGADIYSGCCTLKIEYAKPTRLNVFKNDQDTWDYTNPNLSGQGDPGSNPNKRQRQPPLLGDHPAEYGGPHGGYHSHYHDEGYGPPPPHYEGRRMGPPVGGHRRGPSRYGPQYGHPPPPPPPPEYGPHADSPVLMVYGLDQSKMNCDRVFNVFCLYGNVEKVKFMKSKPGAAMVEMADGYAVDRAITHLNNNFMFGQKLNVCVSKQPAIMPGQSYGLEDGSCSYKDFSESRNNRFSTPEQAAKNRIQHPSNVLHFFNAPLEVTEENFFEICDELGVKRPSSVKVFSGKSERSSSGLLEWESKSDALETLGFLNHYQMKNPNGPYPYTLKLCFSTAQHAS
B2: mCherry-HA-hnRNP L 1–321 (domain or fragment, UniProt P14866 1-321)
chain: MSRRLLPRAEKRRRRLEQRQQPDEQRRRSGAMVKMAAAGGGGGGGRYYGGGSEGGRAPKRLKTDNAGDQHGGGGGGGGGAGAAGGGGGGENYDDPHKTPASPVVHIRGLIDGVVEADLVEALQEFGPISYVVVMPKKRQALVEFEDVLGACNAVNYAADNQIYIAGHPAFVNYSTSQKISRPGDSDDSRSVNSVLLFTILNPIYSITTDVLYTICNPCGPVQRIVIFRKNGVQAMVEFDSVQSAQRAKASLNGADIYSGCCTLKIEYAKPTRLNVFKNDQDTWDYTNPNLSGQGDPGSNPNKRQRQPPLLGDHPAEYGGPH
B3: mCherry-HA-hnRNP L 162–321 (domain or fragment, UniProt P14866 162-321)
chain: IYIAGHPAFVNYSTSQKISRPGDSDDSRSVNSVLLFTILNPIYSITTDVLYTICNPCGPVQRIVIFRKNGVQAMVEFDSVQSAQRAKASLNGADIYSGCCTLKIEYAKPTRLNVFKNDQDTWDYTNPNLSGQGDPGSNPNKRQRQPPLLGDHPAEYGGPH
B4: mCherry-HA-hnRNP L 189–293 (domain or fragment, UniProt P14866 189-293)
chain: RSVNSVLLFTILNPIYSITTDVLYTICNPCGPVQRIVIFRKNGVQAMVEFDSVQSAQRAKASLNGADIYSGCCTLKIEYAKPTRLNVFKNDQDTWDYTNPNLSGQ
B5: mCherry-HA-hnRNP L 1–161 (domain or fragment, UniProt P14866 1-161)
chain: MSRRLLPRAEKRRRRLEQRQQPDEQRRRSGAMVKMAAAGGGGGGGRYYGGGSEGGRAPKRLKTDNAGDQHGGGGGGGGGAGAAGGGGGGENYDDPHKTPASPVVHIRGLIDGVVEADLVEALQEFGPISYVVVMPKKRQALVEFEDVLGACNAVNYAADNQ
B6: mCherry-HA-hnRNP L 1–95 (domain or fragment, UniProt P14866 1-95)
chain: MSRRLLPRAEKRRRRLEQRQQPDEQRRRSGAMVKMAAAGGGGGGGRYYGGGSEGGRAPKRLKTDNAGDQHGGGGGGGGGAGAAGGGGGGENYDDP
B7: mCherry-HA-hnRNP L 322–589 (domain or fragment, UniProt P14866 322-589)
chain: GGYHSHYHDEGYGPPPPHYEGRRMGPPVGGHRRGPSRYGPQYGHPPPPPPPPEYGPHADSPVLMVYGLDQSKMNCDRVFNVFCLYGNVEKVKFMKSKPGAAMVEMADGYAVDRAITHLNNNFMFGQKLNVCVSKQPAIMPGQSYGLEDGSCSYKDFSESRNNRFSTPEQAAKNRIQHPSNVLHFFNAPLEVTEENFFEICDELGVKRPSSVKVFSGKSERSSSGLLEWESKSDALETLGFLNHYQMKNPNGPYPYTLKLCFSTAQHAS
B8: mCherry-HA-hnRNP L 96–161 (domain or fragment, UniProt P14866 96-161)
chain: HKTPASPVVHIRGLIDGVVEADLVEALQEFGPISYVVVMPKKRQALVEFEDVLGACNAVNYAADNQ

Target: T1, Halo-SETD2 1404–2564 (SETD2C) (human) (UniProt Q9BYW2)
T1 sequence: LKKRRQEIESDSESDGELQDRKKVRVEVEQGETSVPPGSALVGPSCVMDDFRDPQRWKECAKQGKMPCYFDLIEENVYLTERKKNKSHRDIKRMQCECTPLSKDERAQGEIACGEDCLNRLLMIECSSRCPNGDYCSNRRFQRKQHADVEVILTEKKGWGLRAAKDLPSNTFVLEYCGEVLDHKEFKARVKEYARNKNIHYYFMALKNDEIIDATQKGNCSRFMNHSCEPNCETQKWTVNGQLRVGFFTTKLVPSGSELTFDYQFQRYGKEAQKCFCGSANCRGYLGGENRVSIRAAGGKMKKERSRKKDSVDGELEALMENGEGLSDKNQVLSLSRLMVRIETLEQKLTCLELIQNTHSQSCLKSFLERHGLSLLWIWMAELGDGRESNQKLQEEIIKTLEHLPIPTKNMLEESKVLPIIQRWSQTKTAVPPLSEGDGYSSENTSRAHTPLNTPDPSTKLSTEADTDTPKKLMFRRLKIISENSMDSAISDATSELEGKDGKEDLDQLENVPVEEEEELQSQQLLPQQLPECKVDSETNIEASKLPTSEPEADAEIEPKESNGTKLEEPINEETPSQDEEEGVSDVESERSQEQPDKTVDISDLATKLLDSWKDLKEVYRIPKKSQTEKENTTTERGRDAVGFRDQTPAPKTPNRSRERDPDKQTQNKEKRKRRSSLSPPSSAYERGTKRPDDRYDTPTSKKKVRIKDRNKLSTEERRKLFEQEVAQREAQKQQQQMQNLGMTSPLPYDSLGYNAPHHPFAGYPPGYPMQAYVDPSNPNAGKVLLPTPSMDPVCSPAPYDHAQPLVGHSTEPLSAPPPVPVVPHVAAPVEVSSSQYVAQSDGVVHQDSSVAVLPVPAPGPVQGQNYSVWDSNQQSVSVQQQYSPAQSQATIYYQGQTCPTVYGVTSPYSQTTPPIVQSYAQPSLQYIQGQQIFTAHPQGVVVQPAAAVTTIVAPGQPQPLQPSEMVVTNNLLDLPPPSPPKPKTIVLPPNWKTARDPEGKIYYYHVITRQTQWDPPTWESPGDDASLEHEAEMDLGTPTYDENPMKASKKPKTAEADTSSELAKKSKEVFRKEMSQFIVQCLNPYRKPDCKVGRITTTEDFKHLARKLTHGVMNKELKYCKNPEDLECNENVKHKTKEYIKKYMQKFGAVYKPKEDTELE
Experiment: co-IP; Halo affinity purification from extracts of 293T cells co-expressing Halo-SETD2C and mCherry-HA-hnRNP L constructs; western blot with anti-HA; no RNase treatment

| Binder | binding |
| --- | --- |
| B1 | binds |
| B2 | binds |
| B3 | binds |
| B4 | binds |
| B5 | no binding |
| B6 | no binding |
| B7 | no binding |
| B8 | no binding |
